Source: a compilation of properties of binary mixtures (doi:10.1016/j.jct.2021.106484)
Some of these densities may be calculated back from excess volumes.

Test: xn = mol fraction of the nth substance listed
Settings: 100 kPa

**Q.** With Cn1cc[n+](CCO)c1.F[B-](F)(F)F + O as the compound, how does the mass density (293.15 K, x1 = 0.0092) read?
**A.** 1027.4 kg/m3

**Q.** And the mass density (293.15 K, x1 = 0.0206)?
**A.** 1058.8 kg/m3

**Q.** And the mass density (293.15 K, x1 = 0.0347)?
**A.** 1096.4 kg/m3

**Q.** What about the mass density (293.15 K, x1 = 0.0521) of the same compound?
**A.** 1134.6 kg/m3

**Q.** And the mass density (293.15 K, x1 = 0.0775)?
**A.** 1170.3 kg/m3

**Q.** What about the mass density (293.15 K, x1 = 0.114) of the same compound?
**A.** 1203.7 kg/m3

**Q.** And the mass density (293.15 K, x1 = 0.1639)?
**A.** 1239.5 kg/m3

**Q.** And the mass density (293.15 K, x1 = 0.2531)?
**A.** 1276.7 kg/m3

**Q.** What about the mass density (293.15 K, x1 = 1) of the same compound?
**A.** 1368.5 kg/m3

**Q.** And the mass density (298.15 K, x1 = 0.0092)?
**A.** 1025.8 kg/m3

**Q.** What about the mass density (298.15 K, x1 = 0.0347) of the same compound?
**A.** 1094 kg/m3

**Q.** What about the mass density (298.15 K, x1 = 0.114) of the same compound?
**A.** 1200.4 kg/m3

**Q.** And the mass density (298.15 K, x1 = 0.1639)?
**A.** 1236 kg/m3

**Q.** What about the mass density (298.15 K, x1 = 0.2531) of the same compound?
**A.** 1272.5 kg/m3

**Q.** And the mass density (298.15 K, x1 = 1)?
**A.** 1363.3 kg/m3

**Q.** And the mass density (303.15 K, x1 = 0.0092)?
**A.** 1024.1 kg/m3

**Q.** What about the mass density (303.15 K, x1 = 0.0206) of the same compound?
**A.** 1054.7 kg/m3

**Q.** What about the mass density (303.15 K, x1 = 0.0347) of the same compound?
**A.** 1091.5 kg/m3

**Q.** And the mass density (303.15 K, x1 = 0.0521)?
**A.** 1129.1 kg/m3

**Q.** And the mass density (303.15 K, x1 = 0.0775)?
**A.** 1164.2 kg/m3

**Q.** What about the mass density (303.15 K, x1 = 0.114) of the same compound?
**A.** 1197 kg/m3

**Q.** And the mass density (303.15 K, x1 = 0.1639)?
**A.** 1232.4 kg/m3

**Q.** And the mass density (303.15 K, x1 = 0.2531)?
**A.** 1269.3 kg/m3

**Q.** What about the mass density (303.15 K, x1 = 1) of the same compound?
**A.** 1360 kg/m3

**Q.** What about the mass density (308.15 K, x1 = 0.0206) of the same compound?
**A.** 1052.4 kg/m3

**Q.** What about the mass density (308.15 K, x1 = 0.0347) of the same compound?
**A.** 1088.9 kg/m3

**Q.** And the mass density (308.15 K, x1 = 0.0521)?
**A.** 1126.2 kg/m3

**Q.** What about the mass density (308.15 K, x1 = 0.114) of the same compound?
**A.** 1193.7 kg/m3

**Q.** What about the mass density (308.15 K, x1 = 0.2531) of the same compound?
**A.** 1265.5 kg/m3

**Q.** And the mass density (308.15 K, x1 = 1)?
**A.** 1355.9 kg/m3

**Q.** What about the mass density (313.15 K, x1 = 0.0092) of the same compound?
**A.** 1020 kg/m3

**Q.** And the mass density (313.15 K, x1 = 0.0347)?
**A.** 1086.2 kg/m3

**Q.** And the mass density (313.15 K, x1 = 0.0521)?
**A.** 1123.2 kg/m3

**Q.** What about the mass density (313.15 K, x1 = 0.114) of the same compound?
**A.** 1190.3 kg/m3

**Q.** And the mass density (313.15 K, x1 = 0.2531)?
**A.** 1261.8 kg/m3

**Q.** What about the mass density (313.15 K, x1 = 1) of the same compound?
**A.** 1351.8 kg/m3

**Q.** What about the mass density (318.15 K, x1 = 0.0206) of the same compound?
**A.** 1047.5 kg/m3

**Q.** What about the mass density (318.15 K, x1 = 0.0521) of the same compound?
**A.** 1120.2 kg/m3

**Q.** What about the mass density (318.15 K, x1 = 0.0775) of the same compound?
**A.** 1154.4 kg/m3

**Q.** What about the mass density (318.15 K, x1 = 0.114) of the same compound?
**A.** 1186.9 kg/m3

**Q.** And the mass density (318.15 K, x1 = 0.1639)?
**A.** 1221.5 kg/m3

**Q.** What about the mass density (318.15 K, x1 = 0.2531) of the same compound?
**A.** 1258.5 kg/m3

**Q.** What about the mass density (323.15 K, x1 = 0.0092) of the same compound?
**A.** 1015.3 kg/m3

**Q.** And the mass density (323.15 K, x1 = 0.0521)?
**A.** 1116.5 kg/m3

**Q.** And the mass density (323.15 K, x1 = 0.0775)?
**A.** 1151 kg/m3

**Q.** And the mass density (323.15 K, x1 = 0.1639)?
**A.** 1217.9 kg/m3

**Q.** And the mass density (323.15 K, x1 = 0.2531)?
**A.** 1254.4 kg/m3

**Q.** What about the mass density (323.15 K, x1 = 0.4278) of the same compound?
**A.** 1297.5 kg/m3

**Q.** Which mass density (323.15 K, x2 = 0) does the source give for O + Cn1cc[n+](CCO)c1.F[B-](F)(F)F here?
**A.** 988 kg/m3
